Data as given in article PMC10313165.

Molecular target: rat CaMKIIα holoenzyme (wild type, not phosphorylated) (rat (Rattus norvegicus)) (UniProt P11275)
Experiment: high-speed atomic force microscopy; single holoenzyme particles on mica modified with cationic pillar[5]arene; buffer A (50 mM tris-HCl pH 7.4, 15 mM KCl, 10 mM MgCl2, 10% glycerol) with the additives of each state; 24-26 °C; kinase domains seen around a central hub assembly

stoichiometry N: 12 and 14
Substance: rat CaMKIIα holoenzyme (wild type, not phosphorylated) (a stretch of the chain, sequence left out) (enzyme; other documents disagree on this pair)

Where “and” joins values, the source holds several entries; their conditions need not be identical. Identical values can stand only once.
